The supplement of paper PMC8277577
Recombinant human monoclonal antibodies (heavy:light variable regions). ELISA EC50 on the named antigen, from 10 µg/ml down; lower = stronger. No active / inactive call.

Molecular target: SARS-CoV-2 Wuhan-Hu-1 spike receptor-binding domain
Test: ELISA binding EC50; higher = weaker binding; ELISA of recombinant human antibody on coated antigen, from 10 µg/ml in fourfold dilutions; four-parameter fit.

| Binder | ELISA binding EC50 [ng/mL] |
| --- | --- |
| C1059 (protein) chain 1: EVQLVESGGGLVQPGGSLRLSCAASGVTVSYNYMHWVRQAPGKGLEWVSVFFPGGSIFYADSVKGRFSISRDNSHNTLYLQMNNLRPEDTAVYYCARDFREGAIDLWGQGTMVTVSS chain 2: DIQLTQSPSFLSASVEDRVTITCRASQGISSYLAWYQQKPGKAPKLLIYGASTLQSGVPSRFSGSGSGTEFTLTISSLQPEDSATYYCQQLNSYPPLFGQGTRLEIK | 1.69 |
| C1060 (protein) chain 1: EVQLVESGGDLVQPGGSLRLSCAASEIIVSRNYMNWVRQAPGKGLEWVSIIYSGGSTFYGDSVKGRFTISRDSSKNTLYLQMHGLRVEDTAIYYCARSYGDYYIDYWGQGTLVTVSS chain 2: DIQMTQSPSSVSASVGDRVTITCRTSQSISTSLAWYQQKPGKAPKLLIYAASSLQRGVPSRFSGTGSGTDFTLTISSLQPEDFATYYCQQSSSSPPLFTFGPGTKVDIK | 2.67 |
| C1061 (protein) chain 1: EVQLVESGGGLVQPGGSLRLSCAASGFTFSRYDMHWVRQGTGKGLEWVSAIGTSGDTYYPDSVKGRFTISRENAKNSLYLQMNSLRAGDTAVYYCARGGLQTTTWLFDYWGQGTLVTVSS chain 2: DIQMTQSPSSLSASVGDRVTITCRASQSISRYLNWYQQKPGKAPKLLIYAASSLQSGVPSRFSGSGAGTDFTLTISSLQPEDFAIYYCQQSYSNPPITFGQGTRLEIK | 2.26 |
| C1062 (protein) chain 1: EVQLVESGGGLVQPGGSLRLSCAASGFTFSNYDMHWVRQTTGKGLEWVSAIGTAGDTYYPGSVKGRFTMSRENAKNSLYLQMNSLRAGDTAVYYCARGGLQTTTWLFDNWGQGTLVTVSS chain 2: DIQMTQSPSSLSASVGDRVTITCRASQTISRYLNWYQQKPGKAPKLLIYAASSLQSGVPSRFSGSGSGTDFTLTISSLQPEDFATYYCQQSYTMPPITFGQGTRLEIK | 2.61 |
| C1063 (protein) chain 1: EVQLVQSGAEVKKPGESLKISCKGYGNSFNNYWIAWVRQMPVKGLEWMGVINPGDSDTRYSPSFQGQVTISVDKSISTAYLQWSSLKASDTAMYYCARTWSPAAVAFFDSWGQGTLVTVS chain 2: NFMLTQPHSVSESPGKTVTISCTRSSDSIGSNYVQWYQQRPGSSPTIVIYEDSQRPSGVPHRFSGSFDSSSNSASLTISGLKTEDEADYYCQSWDSGNLVFGGGTKLTVL | 3.04 |
| C1065 (protein) chain 1: EVQLVESGGGLIQPGGSLRLSCAASGFTVSRNYMSWVRQAPGKGLEWVSVIYSGGSTFYADSVKGRFTISRDNSKNTLYLQMNSLRAEDTAVYYCARGLPTGEGWNYFDYWGQGTLVTVSS chain 2: QSALTQPASVSGSPGQSITISCTGTSSDIGGYHYVSWYQQHPGKAPKLMIYDVSNRPSGISNRFSGSKSGNTASLTISGLQAEDEADYYCSSYASSSVIFGGGTKLTVL | 3.52 |
| C1066 (protein) chain 1: EVQLVESGGGLVQPGRSLRLSCAASGFMFDDYAMHWVRQAPGKGLEWVSGINWSSADIGYVDSVKGRFTISRDNAKNSLYLQMNSLRTEDTAFYYCAKGWFGELLGGSDSWGQGTLVTVSS chain 2: QLVLTQSSSASASLGSSVKLTCTLNSGHSSYIIAWHQQQPGKAPRYLMKLEGSGSYNKGSGVPDRFSGSSSGADRYLTISNLQFEDEADYYCATWDSNTQVFGGGTKLTVL | 3.01 |
| C1067 (protein) chain 1: QVQLVQSGAEVKKPGASVKVSCKASRDTFTTHYIHWVRQAPGQGLEWMGIINPSGGSISYAQKFQGRVTMTRDTSTSTVYMELSSLRSEDTAVYYCARGGIVPHLSNWFDPWGQGTLVTVSS chain 2: EIVLTQSPGTLSLSPGERATLSCRASQSVSSSYLAWYQQKPGQAPRLLIYGASSRATGIPDRFTGSGSGTDFTLTISRLEPEDFAVYYCQQYGRSSGFTFGPGTKVDIK | 2.93 |
| C1068 (protein) chain 1: QVQLVESGGGVVQPGRSLRLSCAASGFTFSTFAMHWVRQAPGKGLEWVAVTSYDGSNKYYADSVKGRFTISRDNSKNTLYLQMNSLRAEDTAVYYCARGLLWFGESEYFQHWGQGTLVTVSS chain 2: not shown | 2.48 |
| C855 (protein) chain 1: QVQLVESGGGVVQPGRSLRLSCAASGFAFSTYGMHWVRQTPGKGLAWVAAISYDGRNTYYGDSVKGRFTITRDNSKNTLYLQLNSLRDEDTALYYCARDATMITLVRGIMGPPFDHWGQGSLVTVSS chain 2: not shown | 2.73 |
| C856 (protein) chain 1: QVQLVESGGGVVQPGRSLRLSCAASGFTFSSYGMHWVRQAPGKGLEWVAVISYDGSNKYYADSVKGRFTISRDNSKNTLYLQMSSLRAEDTAVYYCAKQIGEYCSGGSCYQGSLDYWGQGTLVTVSS chain 2: not shown | 2.65 |
| C857 (protein) chain 1: QVQLQESGPGLVKPSQTLSLTCTVSGGSISSGGYYWSWIRQHPGKGLEWIGYIYYSGSTYYNPSLESRVTISVDTSKNQFSLKLSSVTAADTAVYYCASGELSAFGELFPHDYWGQGTLVTVSS chain 2: EIVLTQSPATLSLSPGERATLSCRASQSVSTYLAWYQQKPGQAPRLLIYDASNRATGIPARFSGSGSGTDFTLTISSLEPEDFAVYYCQQRSNWLFTFGPGTKVDIK | 2.01 |
| C859 (protein) chain 1: QVQLVQSGAELKKPGASVRVSCKASGYTFTDYYIHWVRQAPGQGFEWMGWINPDSGGTNYPQNFQGRVTMTRGTSISTAYVELTRLRFDDTAVYYCARTSSPHSSSTGDLDYWGQGTLVTVS chain 2: SYELTQSPSVSVAPGKTARITCGGRDIGSKSVHWYQQRPGQAPVLVISYDNDRPSGIPERFSGSNSGNTATLTISRVEAGDEADYYCQVWDGTGDHPGWVFGGGTRLTVL | 2.75 |
| C862 (protein) chain 1: QVQLQESGPGLVKPSQTLSLTCTVSGASISSSEHYWSWIRQPPGKGLEWIGYISYSGGTYQNPSLQSRMTLSMDASKNQFSLKLSSVTAADTAVYFCARLNTMIVMINGVFDVWGQGTMVTVSS chain 2: DIQMTQSPSSLSAFVGDRVTITCQASQDINKYVNWYQQKPGKAPKLLIYDASNLQTGVPSRFSGSGSGTHFTFTISSLQPEDFATYYCQEYDNLFSISFGQGTRLEIK | 2.14 |
| C863 (protein) chain 1: EVQLLESGGGLVRPGGSLRLSCAASGFIFGSYAMTWVRQAPGKGLEWVSTISGGGTSTDYADSVKGHFTISRDNGKNTLYLQMNSLRAEDTAVYYCVKESDYYMASVNGMDVWGHGTTVTVSS chain 2: EIVLTQSPGTLSLSPGERATLSCRARQGVSSTYLAWYQQKPGQAPRLLIYGASSRATGIPDRFSGSGSGADFTLTISRLEPEDFAVYYCQQYGTSPYTFGQGTKLEIK | 3.31 |
| C864 (protein) chain 1: QVQLVQSGPEVKKPGTSVKVSCKAFQLSFSVSAVQWVRQARGQRLEWIGWIVVGSGNTNYAQKFQERVTITRDMSTSTVYMEVRSLRSEDTAVYYCAAPQCNRTTCYDAFDMWGQGTMVTVSS chain 2: EIVLTQSPGTLSLSPGERATLSCRASQSVNSNYLAWYQQKPGQAPRLLIFGPSNRATGIPDRFSGSGSGTDFTLTISRLESEDFAVYYCQQYGSSPWTFGQGTKVEIK | 1.89 |
| C865 (protein) chain 1: EVQLLESGGGLVQPGGSLRLSCVASRFIFSRYALSWVRQAPGKGLEWVSGISGSGHSTHYADSVTGRFTISRDNSKNTVYLQMSSLRAEDTAVYYCAKGPRSNYDYFESWGQGTLVTVSS chain 2: DIQLTQSPSSLSASVGDRVTITCRASQGISSALAWYQQRPGKAPRLLIYDASSLDSGVPSRFSGSGSGTDFTLTISSLQSEDFATYYCQQFINNPLTFGGGTKVEIK | 2.14 |
| C866 (protein) chain 1: EVQLVESGGGLVQPGRSLRLSCVASGFEFEDYGMHWVRQVPGKGLEWVSGISWNSASVGYADSVRGRFTISRDNAKNSLYLQMNSLRAEDTALYYCGKQINEWSHFLDYWGQGTLVTVSS chain 2: DIQLTQSPSSVSASVGDRVTITCRASQGISNWLAWYQKKPGKAPKLLIYATSSLQSGVPSRFSGSGSETDFTLTIRSLQPEDFATYYCQQANSYPLTFGQGTKLEIK | 2 |
| C867 (protein) chain 1: QVQLQESGPGLVKSSETLSLTCTVSSGSVRSGGYYWSWIRHHPGKGLEWIGYIFYTGITYYNPSLKSRVIVSVDPSKNQFSLNLTSVTAADTAVYYCASTPYTNGGAFHIWGQGTMVTVSS chain 2: QSALTQPPSASGSPGQSVTISCTGTSSDVGGHNYVSWYQQFPGKAPKLIIYDVNKRPSGVPDRFSGSKSANTASLTVSGLQAEDEADYHCSSYAGSNNWVFGGGTKLTVL | 2.71 |
| C868 (protein) chain 1: QVQLQESGPRLVKPSETLSLTCIVSGGSVSSNNFYWSWIRQPPGKRLEWIGYFYNSGSSKYNPSLKSRVTISGDTSKNQFSLKLSSVTAADTAVYYCARETFFYDRTGHYKSDGFDVWGQGTMVTVSS chain 2: DIQMTQSPSTLSASVGDRVTISCRASQNISSWLAWYQQEAGKAPKLLIYKASSLESGVPSRFSGSGSGTEFTLTISSLQPGDFATYYCQQYNIYSYTFGQGTKLEIK | 3.39 |
